# Reference: the supplement of paper PMC8728848
# The other results are listed elsewhere or left out.
# Experiments:
# Test in all cases: glycan array binding signal (z-score within array); higher = stronger binding
# Details in all cases: glycan notation: IUPAC condensed, linker removed; mutation: Y228A
# [1] = molecular target: Gal(b1-3)GlcNAc(b1-2)Man(a1-3)[Gal(b1-3)GlcNAc(b1-2)Man(a1-6)]Man(b1-4)GlcNAc(b1-4)GlcNAc
# In short: (§1)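 Glycan array binding is given as a within-array Z-score, which can be read as non-binding when negative. The arrays, 3228 of them, came from the Consortium for Functional Glycomics database and were retained only where the protein sequence was available. Z-scores were averaged across arrays of the same protein sequence at different concentrations or buffers and across linkers.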
# [2] = molecular target: Gal(b1-3)GlcNAc(b1-2)Man(a1-3)[Gal(b1-3)GlcNAc(b1-2)Man(a1-6)]Man(b1-4)GlcNAc(b1-4)[Fuc(a1-6)]GlcNAc
# In short: as §1
# [3] = molecular target: Gal(b1-3)GlcNAc(b1-2)Man(a1-3)[GlcNAc(b1-4)][Gal(b1-3)GlcNAc(b1-2)Man(a1-6)]Man(b1-4)GlcNAc(b1-4)GlcNAc
# In short: as §1
# [4] = molecular target: Gal(b1-3)GlcNAc(b1-2)[Gal(b1-3)GlcNAc(b1-6)]Man(a1-6)[Gal(b1-3)GlcNAc(b1-2)Man(a1-3)]Man(b1-4)GlcNAc(b1-4)GlcNAc
# In short: as §1
# [5] = molecular target: Gal(b1-3)GlcNAc(b1-3)Gal(b1-3)GlcNAc
# In short: as §1
# [6] = molecular target: Gal(b1-3)GlcNAc(b1-3)Gal(b1-4)Glc
# In short: as §1
# [7] = molecular target: Gal(b1-3)GlcNAc(b1-3)Gal(b1-4)GlcNAc
# In short: as §1
# [8] = molecular target: Gal(b1-3)GlcNAc(b1-3)Gal(b1-4)GlcNAc(b1-2)Man(a1-3)[Gal(b1-3)GlcNAc(b1-3)Gal(b1-4)GlcNAc(b1-2)Man(a1-6)]Man(b1-4)GlcNAc(b1-4)GlcNAc
# In short: as §1
# [9] = molecular target: Gal(b1-3)GlcNAc(b1-3)Gal(b1-4)GlcNAc(b1-2)[Gal(b1-3)GlcNAc(b1-3)Gal(b1-4)GlcNAc(b1-6)]Man(a1-6)[Gal(b1-3)GlcNAc(b1-3)Gal(b1-4)GlcNAc(b1-2)Man(a1-3)]Man(b1-4)GlcNAc(b1-4)[Fuc(a1-6)]GlcNAc
# In short: as §1
# [10] = molecular target: Gal(b1-3)GlcNAc(b1-3)Gal(b1-4)GlcNAc(b1-3)Gal(b1-4)GlcNAc(b1-2)[Gal(b1-3)GlcNAc(b1-3)Gal(b1-4)GlcNAc(b1-3)Gal(b1-4)GlcNAc(b1-6)]Man(a1-6)[Gal(b1-3)GlcNAc(b1-3)Gal(b1-4)GlcNAc(b1-3)Gal(b1-4)GlcNAc(b1-2)Man(a1-3)]Man(b1-4)GlcNAc(b1-4)[Fuc(a1-6)]GlcNAc
# In short: as §1
# [11] = molecular target: Gal(b1-3)GlcNAc(b1-3)Gal(b1-4)GlcNAc(b1-6)[Gal(b1-3)GlcNAc(b1-3)]Gal(b1-4)Glc
# In short: as §1
# [12] = molecular target: Gal(b1-3)GlcNAc(b1-3)Gal(b1-4)[Fuc(a1-3)]GlcNAc
# In short: as §1
# [13] = molecular target: Gal(b1-3)GlcNAc(b1-3)Gal(b1-4)[Fuc(a1-3)]GlcNAc(b1-6)[Gal(b1-3)GlcNAc(b1-3)]Gal(b1-4)Glc
# In short: as §1
# [14] = molecular target: Gal(b1-3)GlcNAc(b1-3)GalNAc
# In short: as §1
# [15] = molecular target: Gal(b1-3)GlcNAc(b1-6)Gal(b1-4)GlcNAc
# In short: as §1
# [16] = molecular target: Gal(b1-3)GlcNAc(b1-6)GalNAc
# In short: as §1
# [17] = molecular target: Gal(b1-3)GlcNAc(b1-6)[Gal(b1-3)]GalNAc
# In short: as §1
# [18] = molecular target: Gal(b1-3)GlcNAc6S
# In short: as §1
# [19] = molecular target: Gal(b1-3)[Fuc(a1-4)]GlcNAc
# In short: as §1
# [20] = molecular target: Gal(b1-3)[Fuc(a1-4)]GlcNAc(b1-2)Man
# In short: as §1
# [21] = molecular target: Gal(b1-3)[Fuc(a1-4)]GlcNAc(b1-2)Man(a1-3)[Gal(b1-3)[Fuc(a1-4)]GlcNAc(b1-2)Man(a1-6)]Man(b1-4)GlcNAc(b1-4)[Fuc(a1-6)]GlcNAc
# In short: as §1
# [22] = molecular target: Gal(b1-3)[Fuc(a1-4)]GlcNAc(b1-3)Gal(b1-3)[Fuc(a1-4)]GlcNAc
# In short: as §1
# [23] = molecular target: Gal(b1-3)[Fuc(a1-4)]GlcNAc(b1-3)Gal(b1-4)[Fuc(a1-3)]GlcNAc
# In short: as §1
# [24] = molecular target: Gal(b1-3)[Fuc(a1-4)]GlcNAc(b1-6)GalNAc
# In short: as §1
# [25] = molecular target: Gal(b1-3)[GlcNAc(b1-6)]GalNAc
# In short: as §1
# [26] = molecular target: Gal(b1-3)[Neu5Ac(a2-6)]GalNAc
# In short: as §1
# [27] = molecular target: Gal(b1-3)[Neu5Ac(a2-6)]GlcNAc(b1-4)Gal(b1-4)Glc
# In short: as §1
# [28] = molecular target: Gal(b1-3)[Neu5Ac(b2-6)]GalNAc
# In short: as §1
# [29] = molecular target: Gal(b1-4)Gal
# In short: as §1
# [30] = molecular target: Gal(b1-4)GalNAc(a1-3)[Fuc(a1-2)]Gal(b1-4)GlcNAc
# In short: as §1
binder,measurement,setting,value
"Epa1-NP-mutant-Y228A (Candida glabrata), Q6VBJ0 (protein) MILNPALFLNKCVCIYTTLILLLLTNGGYATSSNDISLASKDPTTFPLGCSPDITTPKKGLSMELYSYDFRKKGSYPCWDAAYLDPNYPRTGYKSHRLLAKVDGVTGNINFYYHATKGCTPQLGHLPASYNYPKPLTMTNFTMLLYGYFRPKVTGFHTFTISADDLLFVNFGAGNAFDCCRRDSSADHFGNYQAYAIWGSKTAKDELTVHLDAGVYYPIRLFYNNREADGALSFTFKTESNENTVSDFSEYFFSLDDTEEGCPGLISYDSSCASVKTSKIIGIDYHTETPNENLVPITKTIYHLGIPCTGTTTTPLCGSGFYDPLANKCVTINTSSTSSVTKTTSHTTSKEVSFHSSISSQKTLIPKSIPSPYGPIKSQSIPTEMETSSEISSSEYAFSDVISTPSHSPYTKKHSSLNSSSYTSTVIHSLTSYSISQGIFSTSLSEQNITSKSSTDKFSTATSMSNNITQSSIIISQFSTNNENYTTTSMHTSSDKISTETLNNSISTTTSILFSNSSTILKNNTTIISSDKDTHYHPVNPTIVCSTNKTEIICASITQPSISNSNNHWSSSVLKFNSTTVRSTLPSSAGSNETSINVPFSSSTESNTSTSSTSTSNSKMVRSTLPSSAGSNETSISVPFSSSTESNTSTSSTSTSNSKMVRSTLPSSAGSNETSINVPFSSSTESNTSTSSTSTSNSKTVRSTPFSSAGIIMTSLSQRNNKSASSYASSNSKCYNTADSCRKVHSTPSYLLTSSYTSEGVDYDCSLVSTKLKINDTNCVNNKHTTKSCLKTSVTTTIPTLEIKTARKSSSNTIGLHSYPTSSPNKSISSAPIIGYISSFKTIKTASPSYQTSDLTTITTITSLNNPGSTAVENTHESNDKSRKTSSNDISSKHSVIKETKDAVESSNKSHQTNTLKCSSIIIASSSHNSYESLGGTTLTLTLSKVYSPQNNDTLPFLEISEVNPSRTVLPESSKMMQYLTSTEERNKTARNTIATNIVSISTFHFEGEGNAIRMGYTQLLLMLIGIIVMNIGT",glycan array binding signal (z-score),[1],2.18
same,glycan array binding signal (z-score),[2],2.29
same,glycan array binding signal (z-score),[3],2.24
same,glycan array binding signal (z-score),[4],1.57
same,glycan array binding signal (z-score),[5],0.756
same,glycan array binding signal (z-score),[6],0.604
same,glycan array binding signal (z-score),[7],0.837
same,glycan array binding signal (z-score),[8],0.855
same,glycan array binding signal (z-score),[9],0.799
same,glycan array binding signal (z-score),[10],1.24
same,glycan array binding signal (z-score),[11],2.26
same,glycan array binding signal (z-score),[12],-0.046
same,glycan array binding signal (z-score),[13],-0.03
same,glycan array binding signal (z-score),[14],-0.135
same,glycan array binding signal (z-score),[15],2.32
same,glycan array binding signal (z-score),[16],-0.142
same,glycan array binding signal (z-score),[17],0.385
same,glycan array binding signal (z-score),[18],7.1
same,glycan array binding signal (z-score),[19],-0.191
same,glycan array binding signal (z-score),[20],-0.072
same,glycan array binding signal (z-score),[21],-0.006
same,glycan array binding signal (z-score),[22],-0.23
same,glycan array binding signal (z-score),[23],-0.097
same,glycan array binding signal (z-score),[24],-0.184
same,glycan array binding signal (z-score),[25],-0.188
same,glycan array binding signal (z-score),[26],0.209
same,glycan array binding signal (z-score),[27],-0.161
same,glycan array binding signal (z-score),[28],-0.117
same,glycan array binding signal (z-score),[29],-0.071
same,glycan array binding signal (z-score),[30],-0.277
